# This is one part of the list.
# Legend:
# Experiment in all cases: glycan array binding signal (z-score within array); higher = stronger binding
# Conditions in all cases: glycan notation: IUPAC condensed, linker removed
# [1] = molecular target: Gal(b1-4)GlcNAc(b1-3)Gal(b1-4)GlcNAc(b1-3)[Gal(b1-4)GlcNAc(b1-3)Gal(b1-4)GlcNAc(b1-6)]GalNAc
# Procedure, shortened: (§1)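 The Consortium for Functional Glycomics database supplied 3228 glycan arrays, of which those lacking an available protein sequence were dropped. The binding signal, a within-array Z-score, was averaged across arrays of the same protein sequence and across linkers. Negative scores can be read as non-binding.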
# [2] = molecular target: Gal(b1-4)GlcNAc(b1-3)Gal(b1-4)GlcNAc(b1-6)[Gal(b1-3)]GalNAc
# Procedure, shortened: as §1
# [3] = molecular target: Gal(b1-4)GlcNAc(b1-3)Gal(b1-4)[Fuc(a1-3)]GlcNAc(b1-3)Gal(b1-4)[Fuc(a1-3)]GlcNAc
# Procedure, shortened: as §1
# [4] = molecular target: Gal(b1-4)GlcNAc(b1-3)GalNAc
# Procedure, shortened: as §1
# [5] = molecular target: Gal(b1-4)GlcNAc(b1-3)[Fuc(a1-3)GlcNAc(b1-6)]Gal(b1-4)Glc
# Procedure, shortened: as §1
# [6] = molecular target: Gal(b1-4)GlcNAc(b1-3)[Gal(b1-4)GlcNAc(b1-6)]Gal(b1-4)GlcNAc
# Procedure, shortened: as §1
# [7] = molecular target: Gal(b1-4)GlcNAc(b1-3)[GlcNAc(b1-6)]Gal(b1-4)GlcNAc
# Procedure, shortened: as §1
# [8] = molecular target: Gal(b1-4)GlcNAc(b1-6)Gal(b1-4)GlcNAc
# Procedure, shortened: as §1
# [9] = molecular target: Gal(b1-4)GlcNAc(b1-6)GalNAc
# Procedure, shortened: as §1
# [10] = molecular target: Gal(b1-4)GlcNAc(b1-6)[Gal(b1-3)]GalNAc
# Procedure, shortened: as §1
# [11] = molecular target: Gal(b1-4)GlcNAc(b1-6)[Gal(b1-4)GlcNAc(b1-3)]GalNAc
# Procedure, shortened: as §1
# Gal(b1-4)GlcNAc6P = molecular target: Gal(b1-4)GlcNAc6P
# Procedure, shortened: as §1
# Gal(b1-6)Gal = molecular target: Gal(b1-6)Gal
# Procedure, shortened: as §1
# Gal3S(b1-3)GalNAc = molecular target: Gal3S(b1-3)GalNAc
# Procedure, shortened: as §1
# Gal3S(b1-3)GlcNAc = molecular target: Gal3S(b1-3)GlcNAc
# Procedure, shortened: as §1
# [12] = molecular target: Gal3S(b1-3)[Fuc(a1-4)]GlcNAc
# Procedure, shortened: as §1
# Gal3S(b1-4)Glc = molecular target: Gal3S(b1-4)Glc
# Procedure, shortened: as §1
# Gal3S(b1-4)Glc6S = molecular target: Gal3S(b1-4)Glc6S
# Procedure, shortened: as §1
# Gal3S(b1-4)GlcNAc = molecular target: Gal3S(b1-4)GlcNAc
# Procedure, shortened: as §1
# [13] = molecular target: Gal3S(b1-4)[Fuc(a1-3)]Glc6S
# Procedure, shortened: as §1
# [14] = molecular target: Gal3S(b1-4)[Fuc(a1-3)]GlcNAc
# Procedure, shortened: as §1
# [15] = molecular target: Gal3S(b1-4)[Fuc(a1-3)]GlcNAc6S
# Procedure, shortened: as §1
# Gal3S4S(b1-4)GlcNAc = molecular target: Gal3S4S(b1-4)GlcNAc
# Procedure, shortened: as §1
# Gal3S6S(b1-4)GlcNAc = molecular target: Gal3S6S(b1-4)GlcNAc
# Procedure, shortened: as §1
# Gal3S6S(b1-4)GlcNAc6S = molecular target: Gal3S6S(b1-4)GlcNAc6S
# Procedure, shortened: as §1
# Gal4S(b1-4)GlcNAc = molecular target: Gal4S(b1-4)GlcNAc
# Procedure, shortened: as §1
# Gal4S6S(b1-4)GlcNAc = molecular target: Gal4S6S(b1-4)GlcNAc
# Procedure, shortened: as §1
# Gal6P(b1-4)GlcNAc = molecular target: Gal6P(b1-4)GlcNAc
# Procedure, shortened: as §1
# Gal6S(b1-3)GlcNAc = molecular target: Gal6S(b1-3)GlcNAc
# Procedure, shortened: as §1
# Gal6S(b1-3)GlcNAc6S = molecular target: Gal6S(b1-3)GlcNAc6S
# Procedure, shortened: as §1
# Gal6S(b1-4)Glc = molecular target: Gal6S(b1-4)Glc
# Procedure, shortened: as §1
# Gal6S(b1-4)Glc6S = molecular target: Gal6S(b1-4)Glc6S
# Procedure, shortened: as §1
# Gal6S(b1-4)GlcNAc = molecular target: Gal6S(b1-4)GlcNAc
# Procedure, shortened: as §1
# Gal6S(b1-4)GlcNAc6S = molecular target: Gal6S(b1-4)GlcNAc6S
# Procedure, shortened: as §1
# GalNAc(a1-3)Gal = molecular target: GalNAc(a1-3)Gal
# Procedure, shortened: as §1
# GalNAc(a1-3)GalNAc = molecular target: GalNAc(a1-3)GalNAc
# Procedure, shortened: as §1
# [16] = molecular target: GalNAc(a1-3)GalNAc(b1-3)Gal(a1-4)Gal(b1-4)Glc
# Procedure, shortened: as §1
# [17] = molecular target: GalNAc(a1-3)GalNAc(b1-3)Gal(a1-4)Gal(b1-4)GlcNAc
# Procedure, shortened: as §1
# GalNAc(b1-3)Gal = molecular target: GalNAc(b1-3)Gal
# Procedure, shortened: as §1
# [18] = molecular target: GalNAc(b1-3)Gal(a1-4)Gal(b1-4)GlcNAc
# Procedure, shortened: as §1
# [19] = molecular target: GalNAc(b1-3)Gal(a1-4)Gal(b1-4)GlcNAc(b1-3)Gal(b1-4)Glc
# Procedure, shortened: as §1
# [20] = molecular target: GalNAc(b1-3)Gal(a1-6)Gal(b1-4)Glc
# Procedure, shortened: as §1
# GalNAc(b1-3)GalNAc = molecular target: GalNAc(b1-3)GalNAc
# Procedure, shortened: as §1
# GalNAc(b1-3)GlcNAc = molecular target: GalNAc(b1-3)GlcNAc
# Procedure, shortened: as §1
# GalNAc(b1-4)Gal(b1-4)Glc = molecular target: GalNAc(b1-4)Gal(b1-4)Glc
# Procedure, shortened: as §1
binder,measurement,setting,value
"CFEM-CGl (Candida glabrata), Q6FRS0 (protein) VLATPPACLLACVAQVSKQSSQCHTLNQVGCFCENENTAIKNCLDSICPNGNSDAAYTAFKNSCGDVGKAVASV",glycan array binding signal (z-score),[1],0.94
same,glycan array binding signal (z-score),[2],0.751
same,glycan array binding signal (z-score),[3],-0.249
same,glycan array binding signal (z-score),[4],-0.422
same,glycan array binding signal (z-score),[5],-0.483
same,glycan array binding signal (z-score),[6],-0.249
same,glycan array binding signal (z-score),[7],-0.329
same,glycan array binding signal (z-score),[8],0.008
same,glycan array binding signal (z-score),[9],-0.062
same,glycan array binding signal (z-score),[10],0.894
same,glycan array binding signal (z-score),[11],-0.013
same,glycan array binding signal (z-score),Gal(b1-4)GlcNAc6P,-0.285
same,glycan array binding signal (z-score),Gal(b1-6)Gal,0.159
same,glycan array binding signal (z-score),Gal3S(b1-3)GalNAc,-0.312
same,glycan array binding signal (z-score),Gal3S(b1-3)GlcNAc,0.064
same,glycan array binding signal (z-score),[12],-0.252
same,glycan array binding signal (z-score),Gal3S(b1-4)Glc,-0.298
same,glycan array binding signal (z-score),Gal3S(b1-4)Glc6S,-0.122
same,glycan array binding signal (z-score),Gal3S(b1-4)GlcNAc,-0.323
same,glycan array binding signal (z-score),[13],0.202
same,glycan array binding signal (z-score),[14],-0.353
same,glycan array binding signal (z-score),[15],0.168
same,glycan array binding signal (z-score),Gal3S4S(b1-4)GlcNAc,0.018
same,glycan array binding signal (z-score),Gal3S6S(b1-4)GlcNAc,0.092
same,glycan array binding signal (z-score),Gal3S6S(b1-4)GlcNAc6S,0.41
same,glycan array binding signal (z-score),Gal4S(b1-4)GlcNAc,-0.45
same,glycan array binding signal (z-score),Gal4S6S(b1-4)GlcNAc,-0.484
same,glycan array binding signal (z-score),Gal6P(b1-4)GlcNAc,-0.384
same,glycan array binding signal (z-score),Gal6S(b1-3)GlcNAc,-0.072
same,glycan array binding signal (z-score),Gal6S(b1-3)GlcNAc6S,-0.34
same,glycan array binding signal (z-score),Gal6S(b1-4)Glc,-0.14
same,glycan array binding signal (z-score),Gal6S(b1-4)Glc6S,0.168
same,glycan array binding signal (z-score),Gal6S(b1-4)GlcNAc,-0.187
same,glycan array binding signal (z-score),Gal6S(b1-4)GlcNAc6S,0.206
same,glycan array binding signal (z-score),GalNAc(a1-3)Gal,-0.414
same,glycan array binding signal (z-score),GalNAc(a1-3)GalNAc,-0.488
same,glycan array binding signal (z-score),[16],-0.187
same,glycan array binding signal (z-score),[17],-0.037
same,glycan array binding signal (z-score),GalNAc(b1-3)Gal,-0.469
same,glycan array binding signal (z-score),[18],0.209
same,glycan array binding signal (z-score),[19],-0.505
same,glycan array binding signal (z-score),[20],-0.052
same,glycan array binding signal (z-score),GalNAc(b1-3)GalNAc,-0.224
same,glycan array binding signal (z-score),GalNAc(b1-3)GlcNAc,-0.339
same,glycan array binding signal (z-score),GalNAc(b1-4)Gal(b1-4)Glc,-0.317

# — the supplement of paper PMC8728848
